From PubChem BioAssay AID1240 (Sanford-Burnham Center for Chemical Genomics, 2008)
About 800 (1.6%) of roughly 50,000 compounds showed an effect of 50% or more. This is one part of the list.

Target: Bcl-2-like protein 10 (Homo sapiens) (UniProt Q9HD36)
Test: TR3 peptide-Bcl-B binding displacers, biochemical primary FP assay, phenotype converters (AID 1240);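 further: 0% = Bcl-B with tracer peptide and DMSO and 100% = tracer peptide lacking Bcl-B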
Conditions: GST-Bcl-B / FITC-TR3 peptide fluorescence polarization; stronger effect = higher value; compound at 3.75 mg/L

UniProt Q9HD36, sequence (Q9HD36 whole entry, looked up): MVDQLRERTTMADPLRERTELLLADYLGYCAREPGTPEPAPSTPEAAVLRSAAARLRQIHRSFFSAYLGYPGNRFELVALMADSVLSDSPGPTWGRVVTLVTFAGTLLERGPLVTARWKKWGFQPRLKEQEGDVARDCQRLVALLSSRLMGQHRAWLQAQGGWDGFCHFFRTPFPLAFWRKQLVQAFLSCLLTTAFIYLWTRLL

Row | Structure (SMILES) | displacement [%]
1 | CC(C)(C)c1ccc(C2=N/C(=C\c3ccc(C#N)cc3)C(=O)O2)cc1 | 22.4
2 | CN(C)C(=O)c1c(NC(=O)c2ccco2)sc2c1CCCCC2 | 18.1
3 | CC(=O)NC12CC3(C)CC(C)(CC(O)(C3)C1)C2 | -5.3
4 | Cc1cc(Cl)ccc1OC(C)C(=O)Nc1ccc(Cl)c([N+](=O)[O-])c1 (centres undefined) | 4.7
5 | O=[N+]([O-])c1ccccc1S(=O)(=O)NCCOc1ccc(Cl)cc1 | 10.3
6 | CCOc1cc(C(=S)N2CCCCC2)cc(Br)c1O | -4.5
7 | CSc1ccccc1N1C(=O)C2CC(C)=C(C)CC2C1=O (centres undefined) | 11.4
8 | COc1ccc(Br)cc1/C=C/C(=O)Nc1ccc(NC(=O)c2ccco2)c(OC)c1 | -9.2
9 | COc1ccc(C2(C(N)=O)CCOCC2)cc1OC | 3.2
10 | COc1ccc(C(=O)Oc2ccc(/C=c3/sc4nc5ccccc5n4c3=O)cc2)cc1 | -4
11 | COc1ccccc1/C=N/N=C1/NC(=O)C(CC(=O)Nc2ccccc2C(F)(F)F)S1 (centres undefined) | -16.3
12 | COc1ccc(Cl)cc1C(=O)Nc1ccc(-c2nc3ccccc3[nH]2)cc1 | -1.3
13 | CCOC(=O)C1=C(N)OC2=C(C(=O)CCC2)C1c1ccccc1OCC (centres undefined) | -5.3
14 | Oc1ccc(/C=N\N2CCN(c3ccccc3)CC2)c(O)c1 | -3.2
15 | Cc1cc(C)nc(N/N=C/c2ccc(C(F)(F)F)cc2)n1 | -25.1
16 | c1ccc2c(c1)nc(N1CCOCC1)c1ccccc12 | -0.6
17 | CCN1C(=O)c2cccc3c(NC(=O)c4ccc(S(=O)(=O)N5CCCCCC5)cc4)ccc1c23 | 88.2
18 | COc1ccc(C2CC(C(F)(F)F)n3nc(C(=O)NCc4ccco4)c(Br)c3N2)cc1 (centres undefined) | -3.3
19 | CCN1C(=O)/C(=C\c2ccc(C(F)(F)F)cc2)SC1=S | -4.4
20 | O=C1CSC(c2ccc(Cl)c(Cl)c2)N1CC12CC3CC(CC(C3)C1)C2 (centres undefined) | 16.4
21 | Cc1cc2sc3ccccc3c(=O)c2cc1O | 25.4
22 | CCOC(=O)c1[nH]c(=O)[nH]c1CSc1nc2ccccc2o1 | 6.1

Row | Structure (SMILES) | displacement [%]
23 | COc1ccc(/C=N/Nc2cc(OC)ncn2)c(OC)c1 | -0.6
24 | O=C(NCCNc1ccc([N+](=O)[O-])cc1Cl)c1ccccc1Br | 10
25 | O=C1CCN(C(=O)c2ccccc2)c2cc3ccccc3cc21 | 5
26 | O=c1[nH]c(=O)n(-c2ccccc2Cl)c(O)c1C=Nc1ccc(Cl)cc1 | 18.6
27 | Cc1cc(C)c(-c2csc(NC(=O)c3ccc(Cl)cc3Cl)n2)c(C)c1 | -0.2
28 | Cc1c(NC(=O)c2ccccc2N(Cc2ccccc2)S(C)(=O)=O)c(=O)n(-c2ccccc2)n1C | -2.1
29 | O=C(O)c1ccccc1C(=O)Nc1nncs1 | 1.9
30 | Fc1ccc(OCCCN2CCOCC2)cc1 | 11.1
31 | CC(=O)N1c2ccccc2N(Cc2ccc(Cl)c(Cl)c2)C(=O)C1(C)C | -5.3
32 | Cc1cccc(-c2nc3cc(NC(=O)COc4ccccc4[N+](=O)[O-])ccc3o2)c1 | 15.8
33 | O=C(Nc1ccc2ccccc2c1)C1COc2ccccc2O1 (centres undefined) | 4.4
34 | C/C(=N\NC(=O)c1ccccc1O)c1ccncc1 | 0.7
35 | CC(=NC1CCCCC1)C1=C(O)c2ccccc2C1=O | 1.8
36 | COc1ccccc1OCC(=O)n1nc(C)cc1C | 8.4
37 | CC(=O)c1cccc(NC(=O)/C(=C\c2cccnc2)NC(=O)c2ccccc2)c1 | -5.3
38 | COc1ccc2nc(SCC(=O)Nc3ccccc3)[nH]c2c1 | 6.1
39 | COc1ccc(C2/C(=C(\O)c3ccc(Cl)cc3)C(=O)C(=O)N2CCCCCC(=O)O)cc1 (centres undefined) | -4.1
40 | COC(=O)C12CC3(C)CC(C)(CC(C)(C3)C1)C2 | -1.2
41 | O=C1NC(=O)C(=Cc2ccc(OCCOc3ccccc3)cc2)C(=O)N1 | 0.3
42 | O=C(COc1ccc([N+](=O)[O-])cc1)Nc1ccc2oc(-c3ccccc3F)nc2c1 | 10.7
43 | Cc1ccc(C(=O)N/C(=C\c2ccc(C(C)C)cc2)C(=O)NCCCN2CCOCC2)cc1 | 11.7
44 | CC1=C(C(=O)Nc2ccc(Cl)cc2)C(c2ccc([N+](=O)[O-])cc2)NC(=O)N1 (centres undefined) | 124

Row | Structure (SMILES) | displacement [%]
45 | Cc1ccc(S(=O)(=O)C(=O)Nc2cccc3nsnc23)cc1 | 8.4
46 | O=C1NC(=O)N(c2cccc(Br)c2)C(=O)/C1=C/c1ccc(-c2ccccc2C(=O)O)o1 | -13.6
47 | Cc1ccccc1OCC(=O)NCCSc1ccccn1 | 4.4
48 | CCOC(=O)C1=C(O)/C(=C/c2ccc(O)cc2)N=C1C | -9.4
49 | Cc1ccc(N2C(=O)/C(=C/c3ccc(Oc4ccc([N+](=O)[O-])cn4)cc3)C(=O)NC2=S)cc1 | 1.9
50 | CC(=O)c1ccc(N2CCN(C(=O)c3cccs3)CC2)c(F)c1 | -4.6
51 | CC(C)OC(=O)c1ccc(NC(=O)COc2ccc([N+](=O)[O-])cc2)cc1 | -10
52 | CCOC(=O)c1c(NC(=S)Nc2ccccc2)sc2c1CCCCC2 | 6.1
53 | CCCCCc1nnc(NC(=O)COc2ccccc2)s1 | 1.4
54 | c1ccc(-c2cc(N3CCCCC3)nc3ccccc23)cc1 | 2.6
55 | COc1ccc(S(=O)(=O)N(CC(=O)N2CCCCCC2)c2ccc(C)cc2)cc1OC | -7.2
56 | CC1=CC(C)(C)Nc2ccc(OC(=O)CN3C(=O)c4ccccc4C3=O)cc21 | -2.3
57 | O=C(c1ccccc1F)N1CCN(c2ccc(Cl)cc2[N+](=O)[O-])CC1 | 7.8
58 | CC(=O)NC(c1ccccc1)c1c(OC(=O)c2ccccc2)ccc2ccccc12 (centres undefined) | -4.1
59 | CCOCCOC(=O)c1cccc(NC(=O)c2ccccc2C)c1 | 6.1
60 | c1ccc(OCCCn2ccnc2)cc1 | -7.2
61 | O=C(NCCCn1ccnc1)c1cc([N+](=O)[O-])cc([N+](=O)[O-])c1 | -12.7
62 | COc1ccc(C2/C(=C(/O)c3ccc(Cl)cc3)C(=O)C(=O)N2C)c(OC)c1 (centres undefined) | 7.6
63 | O=C(O)CSc1nnc(COc2ccccc2)n1-c1ccc(Cl)cc1 | 2.5
64 | N#CC1=C(SCC(=O)Nc2ccc(Br)cc2)NC(=O)CC1c1cccs1 (centres undefined) | -10.4
65 | CCOC(=O)c1c(NC(=O)c2ccc(C)cc2)sc(C(=O)Nc2ccccc2C(F)(F)F)c1C | -12.4
66 | CC(C)(Cc1ccc(O)cc1)NC(=O)SCc1ccccc1 | -10.4

Row | Structure (SMILES) | displacement [%]
67 | CC(=O)Nc1cccc(NC(=O)c2cc(Cl)ccc2Cl)c1 | 4.6
68 | CC1(C)Cc2c(sc3nc(SCc4ccc(Cl)cc4)n(Cc4ccccc4)c(=O)c23)CO1 | 9.4
69 | COc1ccc(S(=O)(=O)Nc2ccc(F)c([N+](=O)[O-])c2)cc1 | 15.9
70 | COc1ccc(/C=C/C(=O)Nc2ccc([N+](=O)[O-])cc2)cc1 | 3
71 | CCN(CC)CC(=O)Nc1ccc2c(c1)N(C(=O)CNN(CC)CC)c1ccccc1CC2 | -2
72 | OCCN=Cc1c2ccc[nH]c-2c2ccccc12 | 14.1
73 | Cn1c(/C=C/c2c[nH]c3ccccc23)nc2ccccc2c1=O | 108
74 | CCOc1ccc2c(c1)C(C)=CC(C)(C)N2S(=O)(=O)c1ccc(NC(C)=O)cc1 | 2.1
75 | Cc1cc(C)nc(/N=C(/N)NNC(=O)c2cccnc2)n1 | -17.4
76 | Cc1ccc(N(CC(=O)NCCSc2ccc(Cl)cc2)S(C)(=O)=O)cc1 | 13.4
77 | COC(=O)c1ccc(/C=c2\sc3nc4cc(C)c(C)cc4n3c2=O)cc1 | -7.7
78 | Cc1oc(C(=O)O)cc1CSCc1cc(C(=O)O)oc1C | 12.9
79 | COc1cc(C(=O)O)cc(OC)c1OC(=O)c1cc(C)c(C)o1 | -13.8
80 | Nc1nonc1/C(=N/O)N1CCN(CCO)CC1 | 7.8
81 | O=C(Nc1ccncc1)c1cc2ccccc2o1 | 10.1
82 | COc1cc(C(=O)Nc2ccc(Br)cn2)cc(OC)c1OC | -1.3
83 | CCCCOC(=O)Nc1ccc(S(=O)(=O)Nc2cc(C)ccc2C)cc1 | 7.1
84 | CC(=O)Nc1ccc(S(=O)(=O)Nc2cccc(C(=O)Nc3cccc(Cl)c3)c2)cc1 | -4.2
85 | COc1ccc(C(=O)Nc2ccccc2C(=O)NC(Cc2c[nH]c3ccccc23)C(=O)O)cc1 (centres undefined) | 14.8
86 | COc1ccc(C(=O)NCCSc2ccccn2)cc1 | -8.2
87 | O=C(/C=C/c1cccc([N+](=O)[O-])c1)Nc1ccc(F)c(Cl)c1 | 1.3
88 | CCSc1nnc2c(n1)OC(C)(C)Nc1ccccc1-2 | -6.3

Row | Structure (SMILES) | displacement [%]
89 | O=C(N/N=C/C1CC=CCC1)c1cccnc1 (centres undefined) | 4.9
90 | CC1=C(C(=O)OCCOC(C)C)C(c2ccccc2Cl)NC(=O)N1 (centres undefined) | -11.2
91 | O=S1(=O)CC=C(CSc2nc3ccccc3[nH]2)C1 | 4
92 | CC(C)CC(NC(=O)/C(=C/c1ccccc1F)NC(=O)c1ccccc1)C(=O)O (centres undefined) | -2.1
93 | CN(C)CCN1C(=O)C(=O)/C(=C(/O)c2ccccc2)C1c1ccc(F)cc1 (centres undefined) | 2.1
94 | CCOc1ccc2nc(SCC(=O)Nc3ccc(C)cc3)sc2c1 | -2.7
95 | CCN(c1ccccc1)c1nc2nonc2nc1N(C)C | 4.8
96 | O=C(Cn1c(O)c(N=NC(=S)Nc2ccccc2)c2ccccc21)Nc1ccccc1 | -0.2
97 | Cc1cc(Cl)ccc1OCC(=O)Nc1cccc(F)c1 | 11.1
98 | C/C(=N\NC(=O)c1cc(C(C)(C)C)[nH]n1)c1ccc(Br)cc1 | -4.7
99 | Cc1ccc(CN2CCN(N=Cc3ccccc3[N+](=O)[O-])CC2)c(C)c1 | 6.6
100 | CS(=O)(=O)N(Cc1ccc(Cl)cc1)c1ccc(C(=O)Nc2cccnc2)cc1 | -12.6
101 | COC(=O)c1ccc(COc2ccc3c4c(c(=O)oc3c2C)CCCC4)cc1 | -4.5
102 | Cc1sc2ncnc(N3CCCCCC3)c2c1C | -1.2
103 | Cc1ccc(/C=C/C(=O)c2ccc([N+](=O)[O-])cc2)s1 | -14.7
104 | COc1ccc2c(C(F)(F)F)cc(=O)oc2c1 | 13.7
105 | O=C1CSC(c2ccc([N+](=O)[O-])cc2)N1CC12CC3CC(CC(C3)C1)C2 (centres undefined) | 7.9
106 | CN1CCN(/N=C/C=C/c2ccccc2)CC1 | -2.3
107 | COc1ccc(NC2=C(Cl)C(=O)N(c3cccc(Cl)c3)C2=O)c(OC)c1 | -3.1
108 | CCCCOC(=O)C1=C(C)NC(=S)NC1c1ccc(N(C)C)cc1 (centres undefined) | 6.6
109 | COc1ccc(-c2nnc(SCC(=O)c3ccc(F)cc3)n2-c2ccccc2)cc1 | 10.5
